In paper PMC6949271:
Results are given in words; binding and its absence hold for the method and conditions named. In cells and extracts the contact can be indirect. Some binding calls cover weakened binding; strength is not graded here.

By UniProt entry, the sequences of proteins in these tests, tags left out. Where a name states a change or a piece, a line headed by the entry shows the natural chain unless it says otherwise.
UniProt Q92547: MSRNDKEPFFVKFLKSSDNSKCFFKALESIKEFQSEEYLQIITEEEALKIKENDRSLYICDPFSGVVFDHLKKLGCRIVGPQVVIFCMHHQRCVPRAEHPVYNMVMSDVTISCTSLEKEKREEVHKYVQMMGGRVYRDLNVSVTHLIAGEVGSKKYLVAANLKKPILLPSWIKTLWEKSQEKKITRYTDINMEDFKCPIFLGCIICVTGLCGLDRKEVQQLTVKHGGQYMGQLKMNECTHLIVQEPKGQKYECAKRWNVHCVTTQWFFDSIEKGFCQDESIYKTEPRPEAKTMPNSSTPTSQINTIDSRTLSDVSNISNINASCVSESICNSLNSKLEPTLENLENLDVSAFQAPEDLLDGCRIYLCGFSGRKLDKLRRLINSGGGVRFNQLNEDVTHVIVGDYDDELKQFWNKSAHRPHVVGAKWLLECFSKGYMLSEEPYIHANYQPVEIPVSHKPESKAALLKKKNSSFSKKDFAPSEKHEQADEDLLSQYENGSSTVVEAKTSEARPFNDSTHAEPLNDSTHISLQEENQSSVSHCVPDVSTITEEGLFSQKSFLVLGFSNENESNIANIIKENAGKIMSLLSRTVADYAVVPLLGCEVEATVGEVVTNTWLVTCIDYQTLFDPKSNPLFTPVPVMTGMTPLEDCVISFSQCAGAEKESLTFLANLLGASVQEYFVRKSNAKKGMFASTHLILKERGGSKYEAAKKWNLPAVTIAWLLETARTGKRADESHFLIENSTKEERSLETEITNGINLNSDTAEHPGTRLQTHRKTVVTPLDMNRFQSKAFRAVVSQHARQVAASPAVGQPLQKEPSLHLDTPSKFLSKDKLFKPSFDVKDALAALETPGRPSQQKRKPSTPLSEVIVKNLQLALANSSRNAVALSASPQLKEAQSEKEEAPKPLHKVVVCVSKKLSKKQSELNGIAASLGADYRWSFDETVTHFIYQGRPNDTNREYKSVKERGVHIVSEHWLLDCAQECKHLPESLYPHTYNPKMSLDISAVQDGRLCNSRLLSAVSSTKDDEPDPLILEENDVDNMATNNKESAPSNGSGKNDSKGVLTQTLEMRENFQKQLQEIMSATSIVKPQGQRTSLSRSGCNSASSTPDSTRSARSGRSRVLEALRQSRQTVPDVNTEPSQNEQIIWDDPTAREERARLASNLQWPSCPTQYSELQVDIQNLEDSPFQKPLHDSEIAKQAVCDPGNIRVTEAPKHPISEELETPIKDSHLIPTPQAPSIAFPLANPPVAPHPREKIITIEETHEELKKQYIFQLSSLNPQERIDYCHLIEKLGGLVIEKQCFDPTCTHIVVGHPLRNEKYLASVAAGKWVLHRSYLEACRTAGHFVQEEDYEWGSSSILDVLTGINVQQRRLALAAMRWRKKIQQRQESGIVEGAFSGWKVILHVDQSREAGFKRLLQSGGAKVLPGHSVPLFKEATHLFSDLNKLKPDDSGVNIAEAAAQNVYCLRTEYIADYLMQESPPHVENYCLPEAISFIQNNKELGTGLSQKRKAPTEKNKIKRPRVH
UniProt P54132: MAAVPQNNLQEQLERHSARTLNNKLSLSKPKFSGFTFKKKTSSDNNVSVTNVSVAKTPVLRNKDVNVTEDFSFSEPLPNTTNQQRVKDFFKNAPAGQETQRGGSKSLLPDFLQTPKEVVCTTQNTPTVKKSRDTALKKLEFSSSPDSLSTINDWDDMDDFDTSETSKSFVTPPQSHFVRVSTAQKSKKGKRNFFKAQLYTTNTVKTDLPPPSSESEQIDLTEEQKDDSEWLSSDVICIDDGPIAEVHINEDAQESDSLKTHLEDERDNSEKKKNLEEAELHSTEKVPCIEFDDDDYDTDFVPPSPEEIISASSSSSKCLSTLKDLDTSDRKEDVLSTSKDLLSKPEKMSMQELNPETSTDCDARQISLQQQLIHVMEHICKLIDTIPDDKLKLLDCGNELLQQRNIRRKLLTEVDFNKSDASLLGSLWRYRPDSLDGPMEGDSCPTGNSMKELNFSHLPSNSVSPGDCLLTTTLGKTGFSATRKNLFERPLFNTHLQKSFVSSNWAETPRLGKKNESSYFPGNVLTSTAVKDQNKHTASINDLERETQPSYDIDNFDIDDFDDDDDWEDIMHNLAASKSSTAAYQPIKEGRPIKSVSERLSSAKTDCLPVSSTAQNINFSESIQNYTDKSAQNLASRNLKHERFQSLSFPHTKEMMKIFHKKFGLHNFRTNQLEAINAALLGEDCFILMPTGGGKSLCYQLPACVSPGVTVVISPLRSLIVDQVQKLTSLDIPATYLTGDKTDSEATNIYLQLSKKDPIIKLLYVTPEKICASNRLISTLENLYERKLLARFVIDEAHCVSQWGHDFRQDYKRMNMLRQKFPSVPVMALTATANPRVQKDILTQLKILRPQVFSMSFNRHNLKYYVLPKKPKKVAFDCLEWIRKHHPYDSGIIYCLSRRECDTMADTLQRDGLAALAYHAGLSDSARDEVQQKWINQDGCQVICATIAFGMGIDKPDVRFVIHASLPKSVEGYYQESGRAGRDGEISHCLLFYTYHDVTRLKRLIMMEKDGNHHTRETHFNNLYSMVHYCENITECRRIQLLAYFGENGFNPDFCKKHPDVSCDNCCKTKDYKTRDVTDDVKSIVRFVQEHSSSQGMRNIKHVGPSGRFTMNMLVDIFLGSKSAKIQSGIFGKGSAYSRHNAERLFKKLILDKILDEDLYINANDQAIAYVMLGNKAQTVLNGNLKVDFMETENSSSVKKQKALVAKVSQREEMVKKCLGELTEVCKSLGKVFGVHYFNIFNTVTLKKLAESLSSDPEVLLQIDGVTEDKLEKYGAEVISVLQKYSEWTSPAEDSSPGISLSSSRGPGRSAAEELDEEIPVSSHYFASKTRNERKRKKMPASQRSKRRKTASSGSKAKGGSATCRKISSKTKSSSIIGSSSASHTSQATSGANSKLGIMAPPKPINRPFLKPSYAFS

Assays:
Assay in all cases: co-IP; GFP-tagged TOPBP1 constructs captured on GFP-Trap magnetic agarose from Benzonase-treated lysates of transfected 293FT cells (200 mM NaCl, 2 mM EDTA, 4 °C); endogenous partners detected by blot
[1] = molecular target: GFP-tagged full-length TOPBP1 K704A (BRCT5 mutant) (UniProt Q92547)
[2] = molecular target: GFP-tagged full-length TOPBP1, wild type (UniProt Q92547)
[3] = molecular target: GFP-tagged full-length TOPBP1 K154A/K155A (BRCT1 mutant) (UniProt Q92547)

binding [1]: no binding
binding [2]: binds
binding [3]: binds
Substance: BLM, endogenous (293FT) (from UniProt P54132 1-1417)
